This sample is rich in variants without activity.
B1: TPR 5TU (parent)
chain: GGAUCUUCUCGAUCUAACAAAAAAGACAAAUCUGCCACAAAGCUUGAGAGCAUCUUCGGAUGCAGAGGCGGCAGCCUUCGGUGGCGCGAUAGCGCCAACGUUCUCAACUAUGACACGCAAAACGCGUGCUCCGUUGAAUGGAGUUUAUCAUG

Variants of: B1
Assay: polymerase ribozyme fitness, log enrichment relative to wild type (log ratio); higher = more active; in vitro selection for triplet polymerase activity
Method in brief: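 Input and output libraries were sequenced on Illumina after a single in vitro selection round, run in triplicate on PCR-built, transcribed mutant libraries of each subunit of a heterodimeric triplet polymerase ribozyme. Selection annealed libraries to a biotinylated primer, the partner subunit and triplets, incubated them frozen at −7 °C, then gel-excised extended constructs for streptavidin-bead capture and RT-PCR. Genotypes with ≥10 input reads and ≥1 read per output were kept. Fitness is the logarithm, taken in base 2, of genotype enrichment divided by wild-type enrichment, using inverse-variance-weighted replicate averages.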

C10G G68A U82G A142G and G11C A17C A28U C85G C99A C103G C131G A147C cannot be ordered by “polymerase ribozyme fitness (log ratio)” value: no more than -4.2 for the first, no more than -4.2 for the second.

U9G G58A U102G A138G and G11C C38U G58U C87U A98C G136U cannot be ordered by “polymerase ribozyme fitness (log ratio)” value: no more than -4.2 for the first, no more than -4.2 for the second.

C10G U13A A49C G70A C96U U148G and C10A C79A A97G A150G cannot be ordered by “polymerase ribozyme fitness (log ratio)” value: no more than -4.2 for the first, no more than -4.2 for the second.

Going from C10A A16U U33A A121U G141C to C10G A41G A66G G88C C108U, the “polymerase ribozyme fitness (log ratio)” value falls from -4.19 to no more than -4.2.

First: U9G A24C C38A C76G C79A G80U A142U
Second: U9G U56A
The “polymerase ribozyme fitness (log ratio)” value of the first is lower: no more than -4.2 for the first, -4.07 for the second.

U9G A41G G42A U55G C69A C79U U82A and C10U A40G C87G U144C cannot be ordered by “polymerase ribozyme fitness (log ratio)” value: no more than -4.2 for the first, no more than -4.2 for the second.

Going from C10G G92C A107C C118U C123G to C10U C75U G84A U145A, the “polymerase ribozyme fitness (log ratio)” value rises from no more than -4.2 to -4.08.

C10U A40G G59A U78A G94A C108U and C10G G25U G34C A89C A107U cannot be ordered by “polymerase ribozyme fitness (log ratio)” value: no more than -4.2 for the first, no more than -4.2 for the second.

C10A G42C U44A U53A C85A A122C and C10U U53A G67U C96G G100C A106G G126C U151G cannot be ordered by “polymerase ribozyme fitness (log ratio)” value: no more than -4.2 for the first, no more than -4.2 for the second.

C10G U33G G42C G50U G74C and G11C C14U A21U A22C G86C C87G A121C C131U cannot be ordered by “polymerase ribozyme fitness (log ratio)” value: no more than -4.2 for the first, no more than -4.2 for the second.

C10G G48C G88U and C10U G59A C93U A137G cannot be ordered by “polymerase ribozyme fitness (log ratio)” value: no more than -4.2 for the first, no more than -4.2 for the second.

C10U U13A C69A G83C U109C G143C U145G and U9G C27A G68U G83C C123A C132U cannot be ordered by “polymerase ribozyme fitness (log ratio)” value: no more than -4.2 for the first, no more than -4.2 for the second.

Compared with C10U C57U C96U, C10U A19G U33A C79U C93U is lower in “polymerase ribozyme fitness (log ratio)” value: -3.83 for the first, no more than -4.2 for the second.

Going from G11A A21U C85U to G11A A24C U53A C93U U148A, the “polymerase ribozyme fitness (log ratio)” value falls from -1.32 to no more than -4.2.

U9G G92A C116U C125U U134C and U9G C14G U44A U56G G67A C93U A120G U134C cannot be ordered by “polymerase ribozyme fitness (log ratio)” value: no more than -4.2 for the first, no more than -4.2 for the second.

C10A G46U G62C G80A C118G and C10U A37C C54G C76U C95U G136U cannot be ordered by “polymerase ribozyme fitness (log ratio)” value: no more than -4.2 for the first, no more than -4.2 for the second.

U9C U53A G58U A60C A66C A147C and C10U A47G G94U A147G cannot be ordered by “polymerase ribozyme fitness (log ratio)” value: no more than -4.2 for the first, no more than -4.2 for the second.

U9G C18U U45G G48A C76U and C10U U44A G88C A89G A115C G140U A142G cannot be ordered by “polymerase ribozyme fitness (log ratio)” value: no more than -4.2 for the first, no more than -4.2 for the second.

C10A C79A G83C and C10U A24G C36U C54G C95A C149G cannot be ordered by “polymerase ribozyme fitness (log ratio)” value: no more than -4.2 for the first, no more than -4.2 for the second.

U9G C10A A73C U109G G126A A150G and C10U G34A G59C G92A G133C cannot be ordered by “polymerase ribozyme fitness (log ratio)” value: no more than -4.2 for the first, no more than -4.2 for the second.

U9C G25C U56A C93U C99G and C10G A49U G50C G65A G70C C96U A147C cannot be ordered by “polymerase ribozyme fitness (log ratio)” value: no more than -4.2 for the first, no more than -4.2 for the second.

C10U A52C G84U A110C C129G U145C and G11A G67A C79G A120G cannot be ordered by “polymerase ribozyme fitness (log ratio)” value: no more than -4.2 for the first, no more than -4.2 for the second.

C10G C76U G84U C95A U104G U134G G136A and G11A A41U G46A G68A U78C cannot be ordered by “polymerase ribozyme fitness (log ratio)” value: no more than -4.2 for the first, no more than -4.2 for the second.

G11A G25A A37C C43A A52C C54U G80C G92U A97U C123A and G11C A24U C87A U139A cannot be ordered by “polymerase ribozyme fitness (log ratio)” value: no more than -4.2 for the first, no more than -4.2 for the second.

U9G U15G G62A C96A and C10A U13C U135G cannot be ordered by “polymerase ribozyme fitness (log ratio)” value: no more than -4.2 for the first, no more than -4.2 for the second.

U9G A17U G94A and C10A A39U G86C U109G U130C cannot be ordered by “polymerase ribozyme fitness (log ratio)” value: no more than -4.2 for the first, no more than -4.2 for the second.

U9G C10U A26C C132G U139A and C10G A20U C35A C85G A142C cannot be ordered by “polymerase ribozyme fitness (log ratio)” value: no more than -4.2 for the first, no more than -4.2 for the second.

G11C C36U A49U C57U U102G C116G A119C G141C and C10G A66U C85U C93U U134C A142U U145G cannot be ordered by “polymerase ribozyme fitness (log ratio)” value: no more than -4.2 for the first, no more than -4.2 for the second.

U9G C32U C38U A49C G58A A60U C87G C95U G133U A142U and C10G U13G U44A G58C A60G G88C U90A C93A A120U G136U cannot be ordered by “polymerase ribozyme fitness (log ratio)” value: no more than -4.2 for the first, no more than -4.2 for the second.

C10G C54G C85U C95G U104G and C10U A16U A28G A37C A60U C63U C85A A89C C108U cannot be ordered by “polymerase ribozyme fitness (log ratio)” value: no more than -4.2 for the first, no more than -4.2 for the second.

C10U U78G and C10U A91U cannot be ordered by “polymerase ribozyme fitness (log ratio)” value: no more than -4.2 for the first, no more than -4.2 for the second.

C10U C14G G34U U56G and C10G A60G C96G U104A A110U U127C cannot be ordered by “polymerase ribozyme fitness (log ratio)” value: no more than -4.2 for the first, no more than -4.2 for the second.

C10G A52C G86C U101G A107C C129A A142U and C10G A41G C57U C85U A97C U109A cannot be ordered by “polymerase ribozyme fitness (log ratio)” value: no more than -4.2 for the first, no more than -4.2 for the second.

U9G G42A C93U A120C G141U and G11A G88A G141U cannot be ordered by “polymerase ribozyme fitness (log ratio)” value: no more than -4.2 for the first, no more than -4.2 for the second.

G11A A21U C51U U53A U55G C57U C96A A110C and U9G C10A G59A C72A C75A G80C C85A cannot be ordered by “polymerase ribozyme fitness (log ratio)” value: no more than -4.2 for the first, no more than -4.2 for the second.

C10U A29U A37U G59A G86A G152U and C10G G80C C87U cannot be ordered by “polymerase ribozyme fitness (log ratio)” value: no more than -4.2 for the first, no more than -4.2 for the second.

C10G A52C C93U and G11C C43G C132A G136A cannot be ordered by “polymerase ribozyme fitness (log ratio)” value: no more than -4.2 for the first, no more than -4.2 for the second.

C10A A40C A49C U53A C79U G141U and U9G G42C U45G G50C C75U A89C C96U U151A cannot be ordered by “polymerase ribozyme fitness (log ratio)” value: no more than -4.2 for the first, no more than -4.2 for the second.

C10G U13A G46C G59C C85U G88A A119U and C10A C35A C93G C105A C123G U145A cannot be ordered by “polymerase ribozyme fitness (log ratio)” value: no more than -4.2 for the first, no more than -4.2 for the second.

C10A A20U U31C C43U A89G C96U G136C A147C C149U and C10U A23G G25U A40U U77C G86A C105A U139C cannot be ordered by “polymerase ribozyme fitness (log ratio)” value: no more than -4.2 for the first, no more than -4.2 for the second.

C10G A49G C57G C76A C85U and U9G G48U C85G G143U cannot be ordered by “polymerase ribozyme fitness (log ratio)” value: no more than -4.2 for the first, no more than -4.2 for the second.

C10U A49U U56G G81A G94A U146G and G11A U15G A107G G141C U144C U145A G152A cannot be ordered by “polymerase ribozyme fitness (log ratio)” value: no more than -4.2 for the first, no more than -4.2 for the second.

From the RNAGym collection of RNA variant scans (doi:10.1073/pnas.2313332121)
